Source: PubChem BioAssay AID1159614 (National Center for Advancing Translational Sciences (NCATS), 2016)
About 65 (0.1%) of roughly 45,000 compounds were called active. Calls follow the shape of the dose curve; as a rule, active = well fitted activation curve with a large enough effect; inconclusive = small, poorly fitted or top-dose-only effect; inactive = no such curve, though single readings can be large or run the other way. Some of the results follow.

These compounds were tested against Galactocerebrosidase (Homo sapiens) (UniProt P54803) (assay: A Novel Cell-Based Assay to Identify Small Molecules for B -Galactocerebrosidase). Conditions: 145M-Twi-hGALC-G270D cells (Twitcher mouse brain line with human GALC G270D), HMU-beta-Gal fluorescence, 48 h; series mostly up to 57.5 µM; activation: at the top concentration.
UniProt P54803, sequence (P54803 whole entry, looked up): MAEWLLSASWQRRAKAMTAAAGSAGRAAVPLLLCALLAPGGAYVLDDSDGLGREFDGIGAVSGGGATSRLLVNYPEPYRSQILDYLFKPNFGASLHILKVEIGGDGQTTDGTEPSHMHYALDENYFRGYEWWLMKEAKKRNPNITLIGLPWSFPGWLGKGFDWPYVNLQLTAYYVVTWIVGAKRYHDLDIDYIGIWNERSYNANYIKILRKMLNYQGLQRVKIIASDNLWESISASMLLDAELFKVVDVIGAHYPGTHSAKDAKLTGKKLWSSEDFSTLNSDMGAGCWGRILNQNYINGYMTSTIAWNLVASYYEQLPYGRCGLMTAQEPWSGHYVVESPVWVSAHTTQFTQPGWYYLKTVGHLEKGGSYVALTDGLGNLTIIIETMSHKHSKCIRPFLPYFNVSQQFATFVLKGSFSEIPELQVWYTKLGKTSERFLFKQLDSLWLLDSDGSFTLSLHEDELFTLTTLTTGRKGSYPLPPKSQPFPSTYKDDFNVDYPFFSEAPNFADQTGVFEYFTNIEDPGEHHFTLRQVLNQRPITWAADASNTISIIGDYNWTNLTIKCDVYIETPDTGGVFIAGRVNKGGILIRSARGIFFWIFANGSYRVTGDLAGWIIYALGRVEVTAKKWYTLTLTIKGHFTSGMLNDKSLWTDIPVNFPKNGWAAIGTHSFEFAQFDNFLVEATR
In short: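 Mutant human GALC (G270D), stably expressed in a Twitcher mouse brain cell line lacking endogenous GALC, is measured in live-treated cells via 6-hexadecanoylamino-4-methylumbelliferyl-β-galactoside hydrolysis (0.1 mM final, pH 5.2) with fluorescent detection.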
Also: 0% is about no effect; nearly all actives have a fitted effect of over 65% in size.

| SMILES | activation |
| --- | --- |
| CCOC(=O)c1cc(-c2ccc(OC)cc2)n(CCC(=O)NCCc2ccc(OCC)c(OCC)c2)c1C | inactive: -20.4% |
| CCn1cc(/C=C(\NC(=O)c2ccc(OC)c(OC)c2)C(=O)NCCCn2ccnc2)c2ccccc21 | inactive: -12.9% |
| Cc1ccc(NC(=O)N2CCC(CN3CCCCC3)CC2)c(Cl)c1 | inactive: -9.74% |
| Cc1ccc(OCC(=O)Nc2ccc(C(=O)OCc3cc(=O)n4ccsc4n3)cc2)cc1C | inactive: -23.7% |
| CC(=O)c1ccc(N2CCN(S(=O)(=O)c3ccc(-c4cnc(C5CC5)o4)cc3)CC2)cc1 | inactive: -11.4% |
| Cc1nc2sccn2c(=O)c1S(=O)(=O)Nc1cccc(Cl)c1C | inactive: -8.93% |
| CN(C)c1ccc(CNC(=O)C2CCN(C(=O)c3ccc(-n4ccc5ccccc54)s3)CC2)cc1 | inactive: -18.3% |
| COc1cc([N+](=O)[O-])ccc1NC(=O)N1CCC2(CC1)Nc1cc(F)ccc1-n1cccc12 | inactive: -10.3% |
| Cc1ccc(N2CCN(C(=O)CCS(=O)(=O)c3cc4c(cc3Cl)NC(=O)CO4)CC2)c(C)c1 | inactive: -5.81% |
| CC1CCN(c2nc3c(S(=O)(=O)c4cccc(Cl)c4)nnn3c3ccsc23)CC1 | inactive: -10.9% |
| CC(C)(C)OC(=O)N1CCC(c2c(C(=O)N3CCN(c4ncccn4)CC3)cnn2-c2ccc(F)cc2)CC1 | inactive: -6.31% |
| CCOC(=O)c1c(-c2ccc(OC)cc2)oc2ccc(OCc3ccc(F)cc3F)cc12 | inactive: -13.6% |
| Cc1ccccc1Nc1nnc(-c2ccc(C)c(S(=O)(=O)NCC3CCCO3)c2)c2ccccc12 (stereo unspecified) | inactive: -14.2% |
| CCCCNc1nc2c(-c3cccc(Br)c3)nnn2c2ccccc12 | inactive: -14.8% |
| CCOC(=O)c1ccc(NC(=O)C(CC)Sc2nncn3c2cc2oc(C)cc23)cc1 (stereo unspecified) | inactive: -12.7% |
| COc1ccc(C2=Nc3ccccc3N(CC(=O)Nc3cccc(C(C)=O)c3)C(=O)C2)cc1 | inactive: 6.19% |
| COc1ccc(CNS(=O)(=O)c2csc(C(N)=O)c2)cc1OC | inactive: -10.1% |
| Cc1cn2c(=O)cc(COC(=O)c3ccc(NC(=O)c4ccc(C(C)(C)C)cc4)cc3)nc2s1 | inactive: 2.64% |
| O=C1Nc2c(c(=O)[nH]c(=O)n2-c2ccc(F)cc2)C1(NS(=O)(=O)c1ccc(Cl)cc1)C(F)(F)F (stereo unspecified) | inactive: -5.94% |
| Cn1nnnc1SCCCNCc1cc(Cl)ccc1OCc1ccccc1 | inactive: -7.28% |
| COc1ccc(OCCCn2c(C)nc3cc(C)c(C)cc32)cc1 | inactive: -10.3% |
| CCC1=C(c2ccc(C)cc2)S(=O)(=O)N=C1N1CCC(C(=O)NCCc2cccc(OC)c2)CC1 | inactive: -9.83% |
| COc1cccc2c1cc1c(=O)n(CC(=O)NCCCN3CCN(C)CC3)nc(C)n12 | inactive: -14.9% |
| Cc1cn2c(=O)c(S(=O)(=O)NCCc3ccc(Cl)cc3)c(C)nc2s1 | inactive: -14.1% |

| SMILES | activation |
| --- | --- |
| CCc1ccc(NC(=O)C2CCCN2S(=O)(=O)c2cccc3nsnc23)cc1 (stereo unspecified) | inactive: -15.2% |
| COc1cc(C(=O)Nc2nnc(CC(C)(C)C)s2)cc(OC)c1OC | inactive: -6.15% |
| CC(=O)N1CCc2c(sc3c2c(=O)n(-c2ccccc2)c(=O)n3CC(=O)c2ccc(F)cc2)C1 | inactive: -18.6% |
| CC(C)c1nn2c(=O)cc(COC(=O)c3ccc4c(c3)OCO4)nc2s1 | inactive: -3.46% |
| COC(=O)c1ccc(OCC2c3cc(OC)c(OC)cc3CCN2C(=O)Cc2ccc(OC)c(OC)c2)cc1 (stereo unspecified) | inactive: -15.5% |
| Cn1cc(-c2cc3n(n2)CCC(=O)N3CCCC(=O)NCc2ccccc2)c2ccccc21 | inactive: -14.3% |
| COc1ccc(CNC(=O)CN(C)S(=O)(=O)c2ccc3[nH]c4c(c3c2)CCCC4)cc1 | inactive: 1.29% |
| CCOC(=O)C1CCC(CN(Cc2ccc(OC)cc2)S(=O)(=O)c2ccc(F)c(C(=O)Nc3cc(Cl)ccc3OC)c2)CC1 (stereo unspecified) | inactive: -12.6% |
| COc1ccc(NC(=O)Cc2ccc(NC(=O)N3CCCCc4ccccc43)cc2)c(OC)c1 | inactive: -7.96% |
| CCN(CC)CCNC(=O)Cn1cnc2sc(C)c(S(=O)(=O)N3CCC(C)CC3)c2c1=O | inactive: -13% |
| CC(C)c1ccc(NC(=O)c2cc(S(=O)(=O)NCCC3=CCCCC3)ccc2F)cc1 | inactive: -9.94% |
| CCc1ccc2occ(CC(=O)NCc3ccccc3)c2c1 | inactive: -12.8% |
| COc1ccc(-c2nc3sc(CCNC(=O)c4ccc(C(C)(C)C)cc4)c(C)n3n2)cc1 | inactive: -11% |
| CCOc1ccccc1C(=O)Nc1cc2c(cc1C)n(C)c(=O)c(=O)n2C | inactive: 4.28% |
| Nc1c(NC/C=C\COc2cc(CN3CCCCC3)ccn2)c(=O)c1=O | inactive: -13.5% [at 23.8 µM] |
| CCN1C(=O)c2ccccc2S(=O)(=O)c2ccc(C(=O)NCc3ccc(F)cc3)cc21 | inactive: 5.72% |
| Cc1ccc(CNC(=O)CN2C(=O)COc3ccc(S(=O)(=O)N4CCC(C)CC4)cc32)cc1 | inactive: -29% |
| Cc1ccc(/C=C/C(=O)Nc2ccc(Cl)cc2Cl)cc1 | inactive: -7.61% |
| COc1ccc(NC(=O)c2ccc3[nH]c(C)cc(=O)c3c2)cc1 | inactive: -15.8% |
| CCCCCCn1c(/C=C/c2ccccc2)nc2ccccc21 | inactive: -12.2% |
| Cc1ccc(-n2cc(C(=O)OCc3ccc(Cl)cc3)c3ccccc3c2=O)cc1 | inactive: -8.31% |
| Cc1ccc(NC(=O)Cc2coc3c(C)c(C)ccc23)c(C)c1 | inactive: -16.2% |
| CC(=O)N[C@@H](CS)C(=O)O | inactive: -14.6% |
| CSc1cccc(NC(=O)c2ccc3c(c2)CCCN3S(C)(=O)=O)c1 | inactive: -14.1% |

| SMILES | activation |
| --- | --- |
| Cc1ccc(C)c(NC(=O)CN(Cc2ccccc2)S(=O)(=O)c2ccc3nc(C)sc3c2)c1 | inactive: -11% |
| c1ccc(N2CCN(c3ncnc4c3nc3n4CCCCC3)CC2)cc1 | inactive: -11.4% |
| COC(=O)C1CCN(c2csc3ccc(C)cc3c2=O)CC1 | inactive: -6.48% |
| CCN(CCCNC(=O)c1ccc(Sc2ccc(Cl)cc2)c(NC(C)=O)c1)c1cccc(C)c1 | inactive: -2.49% |
| CCc1nn(CCCC(=O)NCc2ccc(OC)c(OC)c2)c(=O)c2cc3occc3n12 | inactive: -7.14% |
| NCc1ccccc1Sc1ccccc1CO | inactive: -17.1% |
| CCN(CC)c1ccc(-c2nc(-c3ccccn3)no2)cc1[N+](=O)[O-] | inactive: -14.9% |
| CN1c2ccccc2-c2nc(SCC(=O)Nc3ccccc3)ncc2S1(=O)=O | inactive: -25.4% |
| O=C(CSc1oc(-c2ccco2)nc1S(=O)(=O)c1ccc(Br)cc1)c1ccc(Cl)cc1 | inactive: -11.6% |
| COc1cc(C2Oc3nc(SC)nnc3-c3ccccc3N2C(C)=O)cc(Cl)c1OC (stereo unspecified) | inactive: 3.52% |
| Cc1cc(Br)ccc1NC(=O)c1sc2ncn(Cc3ccccc3Cl)c(=O)c2c1C | inactive: -12.4% |
| Cc1ccc(-n2ncc3c(NCc4ccccc4)ncnc32)cc1C | inactive: -13.5% |
| COc1cc(OC)c(NC(=O)CSc2nc3ccncc3[nH]2)cc1Cl | inactive: -18.9% |
| CC(NC(=O)C1CCN(C(=O)N2CCOc3ccccc32)CC1)c1ccccc1 (stereo unspecified) | inactive: -18.4% |
| CCCNC(=O)Cn1nc(C)c2c(C)n(-c3ccccc3)nc2c1=O | inactive: -3.81% |
| CC1=C(C(=O)Nc2cccnc2)C(c2ccc(F)cc2)n2nc(SCc3ccccc3)nc2N1 (stereo unspecified) | inactive: -13.6% |
| Cc1cccc(NC(=O)CCS(=O)(=O)c2cc(Br)cc3c2N(C(=O)C2CC2)CC3)c1C | inactive: -7.75% |
| CC1CCN(S(=O)(=O)c2cccc(C(=O)N(C)C3(C)CCS(=O)(=O)C3)c2)CC1 (stereo unspecified) | inactive: -19.1% |
| CCCCNC(=O)CSc1nc2ccccc2nc1Cc1ccccc1 | inactive: -10.1% |
| COc1cccc(N2CCN(C(=O)Cn3ncc4c3-c3ccccc3OC4)CC2)c1 | inactive: 5.33% |
| Cc1ccc(C(=O)c2cn(CC(=O)Nc3ccc4c(c3)OCCO4)c3nc(C)ccc3c2=O)cc1 | inactive: -8.73% |
| CCOc1ccc(Nc2c(S(=O)(=O)c3ccccc3)cnc3ccc(CC)cc23)cc1 | inactive: -7.12% |
| CC(C)CCNC(=O)c1ccc(NC(=O)N2CCCCc3ccccc32)cc1 | inactive: -11.7% |
| Cc1ccc(N2CC(NC(=O)C3CCCC3)CC2=O)cc1 (stereo unspecified) | inactive: -17.5% |

| SMILES | activation |
| --- | --- |
| CN1Cc2cc(C(=O)N3CCC(C4CCNCC4)CC3)ccc2N[C@@H](CC(=O)O)C1=O | inactive: -14% |
| CSc1oc(-c2ccc(F)cc2)nc1S(=O)(=O)c1ccc(Br)cc1 | inactive: -2.31% |
| CC(C)CC(NC(=O)C1CCC(C)CC1)C(=O)OCC(=O)c1ccc(Cl)cc1 (stereo unspecified) | inactive: -6.83% |
| O=C(CSc1nc2ccccc2n1Cc1ccccc1)NCc1ccccc1 | inactive: -10.2% |
| Cc1ccc(-c2cc(-c3coc4ccccc4c3=O)c3c(n2)-c2cc(Cl)ccc2OC3)cc1 | inactive: -16.2% |
| CC(=O)Nc1ccc(-c2nnc3n(CC(C)C)c(=O)c4ccccc4n23)cc1 | inactive: -17.6% |
| Cc1cc(C)cc(NC(=O)NCC2CCN(Cc3cc(C)ccc3C)CC2)c1 | inactive: -8.22% |
| COc1ccccc1NC(=O)Cn1c(SCC(=O)NCc2ccccc2)nc2ccccc21 | inactive: -3.67% |
| COc1ccc(-c2noc(CSc3nnc(-c4ccncc4)n3-c3cccc(C)c3)n2)cc1OC | inactive: -11.7% |
| Cc1ccc(CCNC(=O)CCCn2nc(C)c3c(C)n(-c4ccc(C)cc4)nc3c2=O)cc1 | inactive: -11.8% |
| COc1ccc(NC(=O)CCCN2C(=O)C(c3ccccc3)Oc3cccnc32)cc1OC (stereo unspecified) | inactive: -16.1% |
| COc1cc(-c2nnc(SCC(=O)N(C)C3CCCCC3)o2)cc(OC)c1OC | inactive: -28.6% |
| COc1ccc(CCC(=O)NCCc2csc(-c3cccc(F)c3)n2)cc1 | inactive: -4.71% |
| CCc1ccc(OCC2c3cc(OC)c(OC)cc3CCN2C(=O)Cc2ccc(OC)c(OC)c2)cc1 (stereo unspecified) | inactive: -22% |
| COc1cc2c(cc1NC(=O)C(C)Oc1ccc(Cl)cc1Cl)oc1ccccc12 (stereo unspecified) | inactive: -9.14% |
| COc1ccc(NC(=O)c2oc3ccc4c(c3c2C)C(=O)CC(C)(C)O4)cc1OC | inactive: -13% |
| CCOc1ccccc1NS(=O)(=O)c1c(C(=O)OC)sc2cccc(F)c12 | inactive: 8.02% |
| COc1ccc(OC)c(CCNC(=O)c2sc3nc4n(c(=O)c3c2C)CCCC4)c1 | inactive: -10.2% |
| COc1ccc(N(C(=O)c2ccccc2C)S(=O)(=O)c2ccc3c(c2)n(C)c(=O)n3C)cc1 | inactive: -11% |
| CCNc1c(NC(=O)c2ccccc2OCC)c(=O)oc2ccccc12 | inactive: -8.74% |
| CSCCC(NC(=O)C1CCCCC1)C(=O)Nc1ccc(F)c(Cl)c1 (stereo unspecified) | inactive: -8.64% |
| Cc1cc(N2CCN(C)CC2)nc2ccc(NC(=O)Nc3ccccc3Cl)cc12 | inactive: 1.56% |
| Cc1ccc(OCC(=O)OCc2cc(=O)n3nc(C4CCCCC4)sc3n2)cc1 | inactive: -12% |
| CCN(c1ncnc2c1c(-c1ccccc1)cn2-c1ccccc1)C1CCCCC1 | inactive: -12.4% |
